Experimental data taken from the supplement of paper PMC8728848.
Some of the results follow.

Columns and labels:
Assay in all cases: glycan array binding signal (z-score within array); higher = stronger binding
Conditions in all cases: glycan notation: IUPAC condensed, linker removed
[1] = molecular target: GlcNAc(b1-4)GlcNAc(b1-4)GlcNAc(b1-4)GlcNAc(b1-4)GlcNAc
How it was run: (§1)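 Negative Z-scores can be read as non-binding. The Z-score is calculated within each array and then averaged across arrays of one protein sequence at different concentrations or buffers and across linkers. Arrays, 3228 in all, were curated from the Consortium for Functional Glycomics database and kept only where the protein sequence was available.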

[2] = molecular target: GlcNAc(b1-4)GlcNAc(b1-4)GlcNAc(b1-4)GlcNAc(b1-4)GlcNAc(b1-4)GlcNAc
How it was run: as §1

[3] = molecular target: GlcNAc(b1-4)[GlcNAc(b1-6)]GalNAc
How it was run: as §1

[4] = molecular target: GlcNAc(b1-6)Gal(b1-4)GlcNAc
How it was run: as §1

GlcNAc(b1-6)GalNAc = molecular target: GlcNAc(b1-6)GalNAc
How it was run: as §1

[5] = molecular target: GlcNAc6S(b1-3)Gal(b1-4)GlcNAc
How it was run: as §1

Kdn(a2-3)Gal(b1-3)GalNAc = molecular target: Kdn(a2-3)Gal(b1-3)GalNAc
How it was run: as §1

Kdn(a2-3)Gal(b1-3)GlcNAc = molecular target: Kdn(a2-3)Gal(b1-3)GlcNAc
How it was run: as §1

Kdn(a2-3)Gal(b1-4)Glc = molecular target: Kdn(a2-3)Gal(b1-4)Glc
How it was run: as §1

Kdn(a2-3)Gal(b1-4)GlcNAc = molecular target: Kdn(a2-3)Gal(b1-4)GlcNAc
How it was run: as §1

[6] = molecular target: Kdn(a2-3)Gal(b1-4)[Fuc(a1-3)]GlcNAc
How it was run: as §1

Kdn(a2-6)Gal(b1-4)GlcNAc = molecular target: Kdn(a2-6)Gal(b1-4)GlcNAc
How it was run: as §1

[7] = molecular target: Man(a1-2)Man(a1-2)Man(a1-3)Man
How it was run: as §1

[8] = molecular target: Man(a1-2)Man(a1-2)Man(a1-6)[Man(a1-3)]Man
How it was run: as §1

Man(a1-2)Man(a1-3)Man = molecular target: Man(a1-2)Man(a1-3)Man
How it was run: as §1

[9] = molecular target: Man(a1-2)Man(a1-3)[Man(a1-2)Man(a1-6)]Man
How it was run: as §1

[10] = molecular target: Man(a1-2)Man(a1-3)[Man(a1-2)Man(a1-6)]Man(a1-6)[Man(a1-2)Man(a1-2)Man(a1-3)]Man
How it was run: as §1

[11] = molecular target: Man(a1-2)Man(a1-3)[Man(a1-2)Man(a1-6)]Man(a1-6)[Man(a1-2)Man(a1-2)Man(a1-3)]Man(b1-4)GlcNAc(b1-4)GlcNAc
How it was run: as §1

[12] = molecular target: Man(a1-2)Man(a1-3)[Man(a1-6)]Man(a1-6)[Man(a1-2)Man(a1-3)]Man(b1-4)GlcNAc(b1-4)GlcNAc
How it was run: as §1

[13] = molecular target: Man(a1-2)Man(a1-6)[Man(a1-3)]Man(a1-6)[Man(a1-2)Man(a1-2)Man(a1-3)]Man
How it was run: as §1

[14] = molecular target: Man(a1-2)Man(a1-6)[Man(a1-3)]Man(a1-6)[Man(a1-2)Man(a1-2)Man(a1-3)]Man(b1-4)GlcNAc(b1-4)GlcNAc
How it was run: as §1

Man(a1-3)[Man(a1-6)]Man = molecular target: Man(a1-3)[Man(a1-6)]Man
How it was run: as §1

[15] = molecular target: Man(a1-3)[Man(a1-6)]Man(a1-6)[Man(a1-2)Man(a1-3)]Man(b1-4)GlcNAc(b1-4)GlcNAc
How it was run: as §1

[16] = molecular target: Man(a1-3)[Man(a1-6)]Man(a1-6)[Man(a1-3)]Man
How it was run: as §1

[17] = molecular target: Man(a1-3)[Man(a1-6)]Man(a1-6)[Man(a1-3)]Man(b1-4)GlcNAc(b1-4)GlcNAc
How it was run: as §1

[18] = molecular target: Man(a1-3)[Man(a1-6)]Man(b1-4)GlcNAc(b1-4)GlcNAc
How it was run: as §1

[19] = molecular target: Man(a1-3)[Man(a1-6)]Man(b1-4)GlcNAc(b1-4)[Fuc(a1-6)]GlcNAc
How it was run: as §1

Man(a1-6)Man = molecular target: Man(a1-6)Man
How it was run: as §1

Man(b1-4)GlcNAc = molecular target: Man(b1-4)GlcNAc
How it was run: as §1

MurNAc(b1-4)GlcNAc = molecular target: MurNAc(b1-4)GlcNAc
How it was run: as §1

Neu5Ac(a2-3)Gal = molecular target: Neu5Ac(a2-3)Gal
How it was run: as §1

[20] = molecular target: Neu5Ac(a2-3)Gal(b1-3)GalNAc
How it was run: as §1

[21] = molecular target: Neu5Ac(a2-3)Gal(b1-3)GalNAc(b1-3)Gal(a1-4)Gal(b1-4)Glc
How it was run: as §1

[22] = molecular target: Neu5Ac(a2-3)Gal(b1-3)GalNAc(b1-4)[Neu5Ac(a2-3)]Gal(b1-4)Glc
How it was run: as §1

[23] = molecular target: Neu5Ac(a2-3)Gal(b1-3)GalNAc(b1-4)[Neu5Ac(a2-8)Neu5Ac(a2-3)]Gal(b1-4)Glc
How it was run: as §1

[24] = molecular target: Neu5Ac(a2-3)Gal(b1-3)GalNAc6S
How it was run: as §1

[25] = molecular target: Neu5Ac(a2-3)Gal(b1-3)GlcNAc
How it was run: as §1

B1: SRA-1 (Homo sapiens), P21757 (protein)
chain: MEQWDHFHNQQEDTDSCSESVKFDARSMTALLPPNPKNSPSLQEKLKSFKAALIALYLLVFAVLIPLIGIVAAQLLKWETKNCSVSSTNANDITQSLTGKGNDSEEEMRFQEVFMEHMSNMEKRIQHILDMEANLMDTEHFQNFSMTTDQRFNDILLQLSTLFSSVQGHGNAIDEISKSLISLNTTLLDLQLNIENLNGKIQENTFKQQEEISKLEERVYNVSAEIMAMKEEQVHLEQEIKGEVKVLNNITNDLRLKDWEHSQTLRNITLIQGPPGPPGEKGDRGPTGESGPRGFPGPIGPPGLKGDRGAIGFPGSRGLPGYAGRPGNSGPKGQKGEKGSGNTLTPFTKVRLVGGSGPHEGRVEILHSGQWGTICDDRWEVRVGQVVCRSLGYPGVQAVHKAAHFGQGTGPIWLNEVFCFGRESSIEECKIRQWGTRACSHSEDAGVTCTL
Which “glycan array binding signal (z-score)” value [1] does the source give for B1 here?
Its value is -0.077.

And the “glycan array binding signal (z-score)” value [2]?
The value was 0.272.

And the “glycan array binding signal (z-score)” value [3]?
The value was 0.201.

And the “glycan array binding signal (z-score)” value [4]?
The value was 0.773.

What about the “glycan array binding signal (z-score)” value (GlcNAc(b1-6)GalNAc) of the same binder?
Its value is 0.417.

And the “glycan array binding signal (z-score)” value [5]?
Its value is 0.417.

What about the “glycan array binding signal (z-score)” value (Kdn(a2-3)Gal(b1-3)GalNAc) of the same binder?
The value was -0.143.

What about the “glycan array binding signal (z-score)” value (Kdn(a2-3)Gal(b1-3)GlcNAc) of the same binder?
Its value is -0.381.

And the “glycan array binding signal (z-score)” value (Kdn(a2-3)Gal(b1-4)Glc)?
Its value is -0.175.

And the “glycan array binding signal (z-score)” value (Kdn(a2-3)Gal(b1-4)GlcNAc)?
Its value is -0.014.

What about the “glycan array binding signal (z-score)” value [6] of the same binder?
Its value is 0.697.

What about the “glycan array binding signal (z-score)” value (Kdn(a2-6)Gal(b1-4)GlcNAc) of the same binder?
The value was 0.148.

And the “glycan array binding signal (z-score)” value [7]?
Its value is -0.235.

And the “glycan array binding signal (z-score)” value [8]?
Its value is -0.193.

What about the “glycan array binding signal (z-score)” value (Man(a1-2)Man(a1-3)Man) of the same binder?
Its value is 0.271.

And the “glycan array binding signal (z-score)” value [9]?
Its value is 0.398.

And the “glycan array binding signal (z-score)” value [10]?
Its value is -0.682.

What about the “glycan array binding signal (z-score)” value [11] of the same binder?
The value was -0.331.

And the “glycan array binding signal (z-score)” value [12]?
The value was -0.281.

What about the “glycan array binding signal (z-score)” value [13] of the same binder?
The value was -0.352.

What about the “glycan array binding signal (z-score)” value [14] of the same binder?
The value was 0.208.

What about the “glycan array binding signal (z-score)” value (Man(a1-3)[Man(a1-6)]Man) of the same binder?
Its value is -0.005.

What about the “glycan array binding signal (z-score)” value [15] of the same binder?
Its value is -0.383.

What about the “glycan array binding signal (z-score)” value [16] of the same binder?
The value was -0.213.

And the “glycan array binding signal (z-score)” value [17]?
Its value is 0.287.

What about the “glycan array binding signal (z-score)” value [18] of the same binder?
Its value is -0.245.

What about the “glycan array binding signal (z-score)” value [19] of the same binder?
The value was -0.293.

What about the “glycan array binding signal (z-score)” value (Man(a1-6)Man) of the same binder?
Its value is 0.123.

And the “glycan array binding signal (z-score)” value (Man(b1-4)GlcNAc)?
The value was -0.472.

And the “glycan array binding signal (z-score)” value (MurNAc(b1-4)GlcNAc)?
The value was -0.157.

What about the “glycan array binding signal (z-score)” value (Neu5Ac(a2-3)Gal) of the same binder?
Its value is -0.299.

What about the “glycan array binding signal (z-score)” value [20] of the same binder?
Its value is -0.387.

And the “glycan array binding signal (z-score)” value [21]?
Its value is -0.833.

And the “glycan array binding signal (z-score)” value [22]?
Its value is 0.198.

What about the “glycan array binding signal (z-score)” value [23] of the same binder?
The value was -0.456.

What about the “glycan array binding signal (z-score)” value [24] of the same binder?
The value was -0.086.

What about the “glycan array binding signal (z-score)” value [25] of the same binder?
Its value is -0.14.
